Reference: the RNAGym collection of RNA variant scans (doi:10.7554/elife.90254)
The source gives no read counts; variants with many changes may rest on few reads.

B1: OR4K15 (parent)
chain: GUUAACGGUCAUAGGCCAUGGAAACUAGGAGCACCAUUUCGCUGCCAGUGAAGAAAUGAACAAAGAAAAUCUGGGCCAGGCAGGCAUCAAAAGAAAUAGUCUUGCGCUCAACCAGAAAGUCUGUAAUCAUUUUAAGGGUA

Variants of: B1
Assay: self-cleavage, relative activity (ratio to wild type); higher = more cleavage; in vitro, sequencing; the parent is a self-cleaving ribozyme

Row | Variant | self-cleavage
1 | C16U A23U U43C A62C A67G A78G U120C U127C A140G | 0.17
2 | A22U A64G G106C | 0.02
3 | A11G U37C A92G U120C U130C | 0.3
4 | G8A C76A A135G | 0.1
5 | U9C A13G A52U U130C | 0.44
6 | A36U G41A G74C A91G U100C | 0.24
7 | A54G A68G U100C | 1.42
8 | U57C A96G A111G | 0.02
9 | U37C A47U U72C A78U C105A | 0.02
10 | U37C A67G U72C U130C | 0
11 | A51U A78G A110U | 0.38
12 | A23G U39C A114U | 0.05
13 | A11G U39C A52G A55G G73U A89G A91G | 0.09
14 | A55G A64G A78U A82G | 0.13
15 | A5U A24G U102C | 1.8
16 | G41C A54G U87C U131C | 0.88
17 | A78U A116G G138A | 0.22
18 | A59G A111C A114U | 0
19 | A11G U49A A52G U72A | 0.15
20 | A13U G15A A114C | 0.04
21 | U37C A52G A54G A56G A90G A118G A135U | 0.21
22 | A36U A47G A94G U130C | 0.65
23 | U2G A5G U127C | 1.22
24 | A55G U70G U132A | 0.84

Row | Variant | self-cleavage
25 | A51G G79A A89G U122A | 0.06
26 | G65U A69G A82U A91G G138A | 0.09
27 | A52G A69G A129U | 1.66
28 | U2C A56G A68G A110G | 0.11
29 | U2C A5G A24G A118G U122C | 0.22
30 | A33G U39A C112G U122C | 0
31 | C71U G74A U100C | 0.29
32 | A55U A116G A135U | 0.93
33 | A47U A86G U87C U102A | 0.34
34 | U49C A60G U72A A98G | 0.04
35 | A5G C85U A92G A129G | 0.9
36 | U38C A56G A114G | 0.2
37 | C25U A33G A59U U70C A86G U122C A129G | 0.09
38 | A89G U108C U130C | 0.01
39 | A66G A78U U124C | 0.47
40 | U108C A116G A135G | 0
41 | A22G U43A A67G A96G | 0.95
42 | A4G A92G U108C A135G | 0.04
43 | A51U U108C U127C | 0.01
44 | A59G U70C A82U | 0.15
45 | A52G A82G A89U U122C | 0.59
46 | U19C A78U A82U U102C U122C A134G | 0.23
47 | A62U U122A A126G | 1.5
48 | A47G A52G A66G | 1.35

Row | Variant | self-cleavage
49 | U12C A18G C113G U127C | 0.01
50 | A56G A60G A78U A98U | 0.76
51 | A18U A67G A94U | 1.64
52 | A36G A92G U103A | 0.51
53 | G15A A66G A94U A118U U130C | 0.33
54 | A5G U103C U122G U131C | 1.12
55 | A92U U102C U108C | 0
56 | C34G C105U U139G | 0.29
57 | U43C C46U U122C | 0.68
58 | U39A A66G U72C U100C | 0.54
59 | A47G A51G A94G A95G | 0.53
60 | A22G U57C A114C A118G | 0.04
61 | G74U A96G U97C | 0.02
62 | A54C A78G A82C | 0.24
63 | A60G U103C A126G | 0.4
64 | U57C A86G U120C A135G | 0.42
65 | A5G A27G A33G A36G A52G G84U A111G A114G | 0.01
66 | A68G U70C G123A A126G | 0.18
67 | G8A U108A A110G | 0.08
68 | U70C A86G U132A | 0.54
69 | U43C A67G A96G | 2.19
70 | A30G U124C A140G | 0.37
71 | A5G U122G U130C U132C | 0.54
72 | U38C A82G A86U A96G U139A | 0.6

Row | Variant | self-cleavage
73 | U9C A52G A116G A126G | 0.08
74 | U49A G50A A59G A82G A86G A95G | 0.3
75 | U49C A54G A89G U103C | 0.57
76 | A11G A51U C61U A67G U131C | 0.99
77 | A22G U57C A66G G79A | 0.15
78 | U39C U57A C101A | 0.14
79 | A11G A56G A94G A125G | 0.68
80 | A22U A47G U57C A90G A126G | 0.25
81 | A18G U100C U103C A114G | 1.46
82 | U43C A51G A63U A116G U120C | 0.32
83 | A4G A13G A114U | 0.21
84 | U43C G104A U122C A129G | 0.02
85 | A36G A56G A64U | 1.33
86 | U38A A63G A91G | 0.91
87 | A13G G104A U127C A129C | 0.24
88 | C25U U38C C42U A55U A117G A118G U122A | 0.93
89 | A24U A51U U70C G93A | 0.55
90 | A24G A47G A78G A94U A111G | 0
91 | A62G A118U A126C | 0.32
92 | U38C A92U G93A A125G | 0.83
93 | A52G U57A U130C | 0.77
94 | A11G A27U A56G A135G | 1.11
95 | U2C A11U U87C A94G A125G U127C | 0.08
96 | U26C A36G A55G | 1.38

Row | Variant | self-cleavage
97 | U9C A27U U70C G74A | 0.43
98 | A11G A89C A111G U122A | 0.03
99 | U37C U38C A63G C128U | 0.76
100 | U38C A116G A135G | 1.05
101 | A24G G93A U127C G137A | 1.02
102 | A27U G48A A116U A125G U127C | 0.05
103 | A33G U39A U103C A110G U133C | 0.07
104 | C35G U87A A117U | 0.46
105 | A90G U102C A129G | 2.26
106 | A69G U70C U122A U132C | 0.17
107 | U37C U38A A96G A111C | 0
108 | G21A A56G A135U | 1.54
109 | U2A A51G A63G U70C A91G C113U A135G | 0.16
110 | U43C A67G A91G A92G | 0.08
111 | U39C A47U A59U A63G U72G | 0.38
112 | G65U A82G U87A U124C | 0.29
113 | G7A U43C A60G A67G | 1.15
114 | A22G U39C A66G A92G U100C U102C A110G A114C | 0.01
115 | A30G U39A A55U A59G U120C A135U | 0.92
116 | U38C U43C A126U | 1.14
117 | C46U U87C A92G U130C | 0.57
118 | A27G A62U A67G A68G A140U | 1.69
119 | U9A U39A U57C | 1.17
120 | U72C A89C A91U U124C | 0.06

Row | Variant | self-cleavage
121 | A4G A5G U43C A125G | 0.5
122 | U12C U38C A78U A94G | 0.41
123 | U9A A59G U100C U103C | 2.23
124 | A51G A64G A96G | 1.79
125 | A22G A52G A66U | 1.4
126 | U2A A86U U108C | 0.01
127 | U37C U49C A60G A95G U102A A125U A129G | 0.61
128 | U9C U100C A117G | 0.24
129 | A55U U70C U72C U87C | 0.17
130 | A86G U102C U122C | 2.07
131 | A4G U72A A135G | 0.8
132 | A22G A47U U57C A69G U131C | 0.6
133 | A54G A55G A118G U132C | 1.24
134 | A18G A23G U38C U39C U43C A89U U132C | 1.1
135 | A11G A51G A91U U120C | 0.97
136 | A11U A117C A125G | 0
137 | A23G C40U U49A A110G | 0.17
138 | A4G A67G A91U U130C | 0.77
139 | G44A A62G U102C U131C | 2.05
140 | A23G U49C A60G U70C A118G | 0.17
141 | A56G A67G U72C | 0.28
142 | A4G A67G A69G | 0.58
143 | U3C C17A A95C A126G | 0.82
144 | U2A U9C A18U A94G A114G | 0.89

Row | Variant | self-cleavage
145 | U38C A55C A56G U57A U122C A135G | 0.21
146 | U49C A60G C88U A111G U122A | 0
147 | G31A U39C A69G A117U U122C | 0.27
148 | A33G A51U A90G | 0.47
149 | A18G A23G U37C A82G | 0.23
150 | U49C A55G U103C | 0.24
151 | A5G A36U C77A A78G U87C | 0.17
152 | A55G A114G U122C | 0.41
153 | U9C A11U A24U A52G | 0.98
154 | U9G A23G G41A A51G A54G A94G | 0.79
155 | G7A U49C U122A | 0.75
156 | U12C U39A A52U U70C C76U A82G U122C | 0.12
157 | U43A A69U A90G A118G | 0.57
158 | U38A U49G U57C A64G A96G U102C | 1.06
159 | G14A A18U A62G U130C | 0.54
160 | A24G A27G U43C A55G G80A A125G | 0.03
161 | A22G A27G A129U | 0.47
162 | U12C A60G A69G A140G | 1.31
163 | U9C A59G A62G | 0.43
164 | A24U U43C U57C A117G | 1.23
165 | U72C A94G A96G A126G | 0.04
166 | A47U A90G A117G U131C | 0.38
167 | A33G A69U A125G | 0.3
